# Test results taken from the supplement of paper PMC11417369.
# ± gives the standard deviation of the averaged measurements. This is one part of the list.
# Tested on: PfAP2-I AP2 domain 3 (GST-tagged)
# Assay: gcPBM binding intensity (ln(normalized median fluorescence intensity)); higher = stronger DNA binding
# Summary of the method: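 Binding intensity is the highest Masliner-normalised natural-log median intensity over replicate spots in either probe orientation. To obtain it, GST-tagged P. falciparum DNA-binding domains made in E. coli were incubated for 1 h on an Agilent 4 × 180k array of primer-extended double-stranded 36-bp intergenic genomic probes plus negative controls. Detection used Alexa488 anti-GST antibody with scanning at 488 nm.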
row,Sequence,gcPBM binding intensity (ln)
1,TGACTTTTTTTATGTTGTACTTATTATAAAAAAAAT [XGTACX_site7736],8.05 ± 0.11
2,AGCTAATATATCTTATATTCATATAAAAAAATATAT [CACACA_negctrl_site1786],7.42 ± 0.49
3,ATTATAATAATGTGATGTACATTAATTGTCTTCCTA [XGTACX_site5404],7.72 ± 0.52
4,AATACATCATTAAAATGTACATATATATATACATTA [XGTACX_site132],7.64 ± 0.44
5,GAAATAAGGGTTATTTCACACATTGCATGTATTTTC [CACACA_site5752],7.59 ± 0.91
6,ATATATATTAATTTTGTGCACAAATGGAAATGTTTG [GTGCAC_site9971],11 ± 0.2
7,TTTTTTTTTTTTTTATGTACTAAAAAATGAAAAATA [XGTACX_site6812],7.98 ± 0.47
8,AAATACTTAACATTGGTGCATATTTGTAAAATTATT [GTGCAC_site9515],10.3 ± 0.55
9,TTATTTATTTATTGGGTGCACTTGATTTAAATATGC,10.7 ± 0.64
10,AAAAAAAAAAAAAAAACACACACATATATATAATAT [CACACA_site9038],8.62 ± 0.51
11,TTTTGGCTTCTAATATTATACAAAATGGTAAGGAAA [TGCATGCA_negctrl_site169],7.94 ± 0.4
12,ATGCAATAATAATATTGTACGCATATATTTTTTACT [XGTACX_site3384],8.04 ± 0.11
13,AGAATACAAAATTGCACACATATTGTGAAAATGTTA [CACACA_site4005],8.42 ± 0.17
14,TATTCCTATATAAAGACACACATATGTAACTACGAT [CACACA_site4139],7.68 ± 0.59
15,TGTGTTATATATAAAGAAAAAAAAAAAAAATATATA [CACACA_negctrl_site567],7.62 ± 0.64
16,AAAAATTTAATTATTTGTACATAAAATACATTTCTG [XGTACX_site791],7.46 ± 0.42
17,TGTACAAATTATACTTCGAACGAAGGGCATACATAT [XGTACX_negctrl_site37],8.1 ± 0.54
18,TATTTGTGTATTTTTACACACATTAATATATTTATA [CACACA_site7562],7.44 ± 0.42
19,TATATATATATTATATGTACACATTTGTGAATTATT [XGTACX_site5848],8.98 ± 0.014
20,TATAGATAACAAAAGTGTACATGTTGTATACACATG [XGTACX_site3471],7.76 ± 0.51
21,TATATATATAAACACACACACACACCCAAGCGTAGC [CACACA_site4210],8.73 ± 0.34
22,AACAACTATTACTGCACACATTCTTACACTATATAA [CACACA_site654],10.5 ± 0.45

row,Sequence,gcPBM binding intensity (ln)
1,TTTTTATTAAGACATGCATGGAAACGCACTATTTTA [TGCATGCA_site999],9.615 ± 0.007
2,AATAAATAAATATATACACACATATATGTCTACATA [CACACA_site3158],7.7 ± 0.43
3,TTTATATCATTTCTTAAAAAAAAGGAGGTAATAGAC [TGCATGCA_negctrl_site555],8.81 ± 0.38
4,ATACGAAGTACGTACACACACTTATATGTTACTAAA [CACACA_site7812],8.26 ± 0.23
5,TATATATGCATTAAATGATGTTCCTGTTTTTTAAAA [CACACA_negctrl_site1378],8.15 ± 0.45
6,TTGCATTACGAACATACACACAGAATAACTGAAAAC [CACACA_site3025],8.23 ± 0.69
7,TTCGATGAATATACAAGTACATATCCTTACGAACTG [XGTACX_site1650],7.6 ± 0.42
8,TTAGTTTATTGGTACTGTACTTTTTTTTTCTCCATT [XGTACX_site8618],8.02 ± 0.33
9,TTATTTAAAATTTTTATGCGTATATATATAGGAACA [CACACA_negctrl_site388],8.05 ± 0.33
10,TATCATATATGAAGGTGTACGATTTATTATATAAAT [XGTACX_site7010],7.87 ± 0.54
11,ATTTTTGAACGGTACAGTACAGAATTTAATTAACCC [XGTACX_site47],7.99 ± 0.47
12,CACAAAATAAATTAAACACACAACATCATAGATGTA [CACACA_site4619],7.21 ± 0.54
13,AATTTTTATTTGTACACACATACATATATATTATAT [CACACA_site993],8.26 ± 0.45
14,ATATAATCAGCTTCTCTTTTATGCTAAAAAAAAAAA [CACACA_negctrl_site1310],7.78 ± 0.59
15,ATAAATAATATAAATACACACTAAAAAAAATATATA [CACACA_site4456],7.51 ± 0.61
16,TGTCATCATCTTAAATGTACAAAAAGGAAATATAAA [XGTACX_site1529],8.09 ± 0.73
17,TTTTTATTTACACTTTTTATTTATATATTATGTACG [CACACA_negctrl_site158],8.05 ± 0.57
18,TTTATATATTTCATAATACACACGAAAAAAAAAAAA [CACACA_site2970],8.23 ± 0.86
19,TATTTGTAATATAACACACACAAAAAAAGACTCGGA [CACACA_site1681],7.95 ± 0.63
20,TTTGTCAAATAATATTGTACTAAAAAATTTTGCCTT [XGTACX_site7485],7.73 ± 0.37
21,ATACACACAGCCTAAACATGCATATAGAAAAAAGAA [TGCATGCA_site1028],8.29 ± 0.49
22,TTTATTTACTATTAAAGTACTAAATCATATAATTAT [XGTACX_site2580],7.49 ± 0.48

row,Sequence,gcPBM binding intensity (ln)
1,TGTTTATACATCAGGTGTACGCAAAATAATTGTATG [XGTACX_site206],8.19 ± 0.16
2,TTAACACATGCTTGGTCACACACGTATGCATATTTA [CACACA_site2127],8.01 ± 0.76
3,TATACATATACATATACACACACACCCATAAATAAA [CACACA_site8372],8.73 ± 0.83
4,GTGTGATATAATTTTTTTAGAGCTTTATAATATTAT [CACACA_negctrl_site233],8.12 ± 0.19
5,CAACCATTTGTAGGTAAACACACATTATTATTAATA [CACACA_site8842],7.47 ± 0.46
6,TATGTTGATGATATTACACACCCAATGAGAAAAGGA [CACACA_site7060],8.25 ± 0.52
7,AAGTTACAGAATATCACACATAAATTATCTGTATAT [CACACA_site5116],7.55 ± 0.52
8,GTTAAGCAATATATATGTACTTATGGAATAGAAAAA [XGTACX_site3693],8.06 ± 0.71
9,TCAATTAATTATTTTTGTACACAAGAATTACTGAAT [XGTACX_site6401],7.77 ± 0.33
10,ATTATCTATCGTTTTTGTACTTACACCTTAATACAA [XGTACX_site7337],8.48 ± 0.61
11,CTTTTTTTTTTTTTTGCGCACTGTTTAAAGGGAAAT [GTGCAC_site9815],9.795 ± 0.049
12,ATATATATATAATAAAGTACAAATTCTAAATGATAT [XGTACX_site570],8.73 ± 0.46
13,TATCTTATGTCTGAAAGTACAAATTTTTTTCTACTT [XGTACX_site2208],7.52 ± 0.49
14,AAGATCGCATGAAATGAACACACATAAAAAAAATAT [CACACA_site9353],7.92 ± 0.87
15,CGTTGGTATTAAAAGGTGCAATGAAATAATATATTA,10.8 ± 0.63
16,TAAAATTTATAAACTACACACATATATATAGTAATA [CACACA_site3728],7.47 ± 0.48
17,TAAAAAATTATATTCACACACATACCCATATATATA [CACACA_site4458],8.21 ± 0.69
18,AATGTAACAACTTTTTGTACTTAAGAAATAATAAAT [XGTACX_site3310],7.64 ± 0.61
19,TAATTTAGATATATAAAGAATTAAAGTTAACATTCT [CACACA_negctrl_site726],7.25 ± 0.64
20,TTAAGAAAAAAAAAAAGTACACACATATAATATATA [XGTACX_site6268],7.79 ± 0.45
21,TTTTTCAGATCCTATATAGTATCATATAAATTCCAT [CACACA_negctrl_site56],7.59 ± 0.58
22,ATACAACTAATAAGTAGTACAATATACATATATTAT [XGTACX_site7086],7.91 ± 0.11

row,Sequence,gcPBM binding intensity (ln)
1,ATATATATATATATATATATATATATATATTATATA [XGTACX_negctrl_site48],8.94 ± 0.59
2,ATATGACTGTTCATTTGTACGTATAATTATATACGT [XGTACX_site3372],8.02 ± 0.58
3,AAAAAAAATGAAAGGTGTACACATACAAACATAGAA [XGTACX_site3517],8.78 ± 0.44
4,TTTTTTTTTTTTTTTTATTTATATATATATATATAT [CACACA_negctrl_site582],9.34 ± 0.25
5,AAATGAGATATAAAATGTACATATTGTAAGTAAACA [XGTACX_site1237],7.82 ± 0.55
6,TTAATTATATCAGGACGTACTAATATAAATATATAT [XGTACX_site8909],7.83 ± 0.18
7,GGGATATATTATTATACACACATATATAAAAGCTTT [CACACA_site2445],7.87 ± 0.35
8,GTGCAAAATATTTTTACACACAAATTTTTACAACAG [CACACA_site3357],9.99 ± 0.63
9,AAAAATAAATAAGACACACACAAAAAAAAAAAAAAA [CACACA_site1432],7.93 ± 0.51
10,AAATATTTTTAGAGTGCATGTAATAAAAATATAATG [TGCATGCA_site19],9.16 ± 0.24
11,GAAATAAGTTAAAATAGTACGTAGTGTTCCTTAAGT [XGTACX_site6557],7.83 ± 0.64
12,CGTTATATATGTATTACATGCAATATATGTACGTAA [TGCATGCA_site274],7.83 ± 0.56
13,TAAATAATATCCCTTTGTACGTATTTTTTTTTATTA [XGTACX_site7303],7.84 ± 0.57
14,TTAAAAATAATATATTGTACACATACTTATTTTAAT [XGTACX_site1348],8.1 ± 0.16
15,TTAGGAAAACAAAAATGTACGCATATATATTATTGA [XGTACX_site8288],7.71 ± 0.66
16,AAGACTTCTCCATATACACACACCAACAAATATAAA [CACACA_site2779],8.12 ± 0.45
17,GTTTATTCATCATACGGTACACATAAATAATATATA [XGTACX_site6931],8.19 ± 0.45
18,GTGCATATACAAATATGTACTTAAACGTTTTTTTTT [XGTACX_site7362],9.86 ± 0.57
19,TTTTTCTTTTGATGTTGTACATATATATCATATAAT [XGTACX_site1189],7.89 ± 0.44
20,TTCGTTTAAATCAAGTGTACATATTATATATAATAT [XGTACX_site7599],7.92 ± 0.11
21,ATTTTTTTTTTTTTTTTTTGGTTTTCTTTAGGAGTT [CACACA_negctrl_site1258],7.54 ± 0.54
22,GATGAATAAATCAAAGCACACATACACCCACATATA [CACACA_site7986],8.6 ± 0.21
